Laboratory results published in PubChem BioAssay AID1345082 (National Center for Advancing Translational Sciences (NCATS), 2018).
Among all 94,000 compounds or so, about 4,000 (4.3%) were called active. Inconclusive results, whose numbers are uncertain, are shown with a selection of clear calls. Calls follow the shape of the dose curve; as a rule, active = well fitted inhibition curve with a large enough effect; inconclusive = small, poorly fitted or top-dose-only effect; inactive = no such curve, though single readings can be large or run the other way. A potency beside an inconclusive call is a rough fit, not a confirmed value.

Test: Cytotoxic Profiling in NIH 3T3 Cell Line of Diverse Libraries Using Quantitative High-Throughput Screening; also: nearly all actives have a fitted effect of over 55% in size
Conditions: NIH 3T3 viability, CellTiter-Glo ATP luminescence, 48-72 h; activity change, negative = cytotoxicity: at 96.7 µM (top of the series) unless noted; series mostly up to 96.7 µM
Procedure, shortened: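 ATP-dependent luminescence (CellTiter-Glo) served as the viability signal for NIH 3T3 cells treated with compound for 48 or 72 hr at 37 °C.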
% is scaled to controls: 0 for no effect and ±100 for the full control effect; potency is read from the fitted curve at half-maximal effect; tags tell the direction and shape of the fitted curve.

Compound	Potency	activity change, negative = cytotoxicity	outcome
COc1ccccc1-c1ccccc1CN1CCC(C)(NC(C)=O)C1 (configuration not stated)	inconclusive: 112 µM [inhibitor, single point]		
COc1ccc(-c2ccccc2NC(=O)C2CCCN(Cc3ccc(O)c(OC)c3)C2)cc1 (configuration not stated)	inconclusive: 50.1 µM [inhibitor, partial curve, poor fit]		
COc1cccc(CNC(=O)C2CCCN2Cc2ccc(-c3cccc(OC)c3)cc2)c1 (configuration not stated)	active: 35.5 µM		
COc1ccc2[nH]c3c(c2c1)CCNC31CCN(S(=O)(=O)c2c(C)noc2C)CC1		inactive: -23.2%	
O=C(NCCCN1CCCCC1)c1ccc2c(c1)N(S(=O)(=O)c1ccccc1)CC2		inactive: -5.48%	
CC1Oc2ccc(NC(=O)c3ccc(F)cc3F)cc2CN(CCc2ccc(F)cc2)C1=O (configuration not stated)	inconclusive: 50.1 µM [inhibitor, partial curve, poor fit]		
COc1ccc(-n2cc(CN3CCN(C)C(C)C3)c(-c3cccc(F)c3)n2)cc1 (configuration not stated)	active: 31.6 µM		
CC(C)N1C[C@@H](COc2ccc(-c3ccccc3)cc2)[C@H](c2ccccc2)S1(=O)=O		inactive: -11.9%	
CN1c2cc(C(=O)Nc3ccc(C(F)(F)F)cc3)ccc2C(=O)N2CCCCCC21 (configuration not stated)	inconclusive: 50.1 µM [inhibitor, partial curve, poor fit]		
COc1ccccc1NC(=O)Cc1cccn1-c1ccc(Cl)cc1	inconclusive: 50.1 µM [inhibitor, partial curve, poor fit]		
CCn1c2c(c(=O)n1Cc1ccccc1)CCN(C(=O)C1CCC(OC)CC1)C2 (configuration not stated)	inconclusive: 11.2 µM [inhibitor, full curve, poor fit]		
C=CCC1(C(=O)O)CCCN(Cc2cn[nH]c2C(=O)O)C1 (configuration not stated)		inactive: 0.72%	
COc1ccc(-c2cc(C(=O)Nc3ccccc3Cl)c3cnn(C)c3n2)cc1	inconclusive: 44.7 µM [inhibitor, partial curve, poor fit]		
Cc1ccc(C(=O)N2CCN(C(=O)c3cccc(-c4ccccn4)c3)CC2)cc1		inactive: -24.7%	
O=C(Cc1ccccc1F)Nc1ccc2c(N3CCCCC3)ncnc2c1	inconclusive: 44.7 µM [inhibitor, partial curve, poor fit]		
COc1ccccc1-c1cccc(C(=O)N2CCN([S+](=O)([O-])c3ccccc3)CC2)c1	inconclusive: 25.1 µM [inhibitor, full curve]		
CNC(=O)c1ccc(-c2ccc(OC)nn2)cc1Cl		inactive: -28.3% [at 138 µM]	
COc1cccc(-c2ccc(C(=O)NCCNC(=O)c3ccc4c(c3)OCO4)cc2)c1		inactive: -26.7%	
CSc1ccc(-c2noc(-c3ncn4c3COC(c3ccccc3Cl)C4)n2)cc1 (configuration not stated)	inconclusive: 50.1 µM [inhibitor, partial curve, poor fit]		
Cc1cccc2c1O[C@H]1[C@H](C(N)=O)CN(C(=O)OCc3ccccc3)[C@@H]21	inconclusive: 50.1 µM [inhibitor, partial curve, poor fit]		
CCOc1ccccc1NC(=O)Cn1c(N2CCN(c3ccccc3)CC2)nc(C)cc1=O		inactive: 2.65%	
Cc1ccc(-c2cc3c(=O)n(CCNC(=O)c4nccc5ccccc45)ccn3n2)c(C)c1	inconclusive: 44.7 µM [inhibitor, partial curve, poor fit]		
CCc1nc2nccc(-c3ccsc3)n2n1		inactive: -5.59%	

Compound	Potency	activity change, negative = cytotoxicity	outcome
O=c1ncn(Cc2ccccc2)c2ccc(-c3cccnc3)nc12	inconclusive: 112 µM [inhibitor, single point]		
O=C(CCCc1c[nH]c2ccccc12)N1CCC2(CC1)CC(CCOCC1CC1)CCO2 (configuration not stated)	inconclusive: 50.1 µM [inhibitor, partial curve, poor fit]		
O=C1CC(NCc2cc(F)ccc2-n2cccn2)CN1Cc1cccc(F)c1 (configuration not stated)		inactive: -0.238%	
Cc1nc2cnccn2c1C(=O)NCc1ccc(F)cc1F		inactive: -21% [at 138 µM]	
N#Cc1cccc(-c2c(C(=O)N3CCCCC3)nc3sccn23)c1	inconclusive: 79.4 µM [inhibitor, partial curve, poor fit]		
COc1cccc(-c2cccc(C(=O)N3CCCC3C(=O)N3CCN(C(C)=O)CC3)c2)c1 (configuration not stated)		inactive: -20.9%	
N#CC1CCN(C(=O)CNC(=O)c2cccc(-c3ccsc3)c2)CC1		inactive: -13.9%	
O=C(c1cccc(Cl)c1)N1CCC(N(Cc2ccccc2)C2CCOCC2)CC1	inconclusive: 50.1 µM [inhibitor, partial curve, poor fit]		
COCCNc1ncccc1-c1noc([C@@H]2CCCN2Cc2ccc3c(c2)OCO3)n1	inconclusive: 89.1 µM [inhibitor, partial curve, poor fit]		
COCc1cn2c(=O)n(C)cc(-c3ccnc(OC)c3)c2n1	inconclusive: 79.4 µM [inhibitor, partial curve, poor fit]		
COc1ccccc1N1CCN([C@H]2[C@@H]3OC[C@@H](O3)[C@@H](NC(=O)Nc3ccccc3)[C@@H]2O)CC1		inactive: -14.2%	
COc1ccc2[nH]cc(CN3CCC([C@H]4[C@@H](OC)C(=O)N4C(C)C)CC3)c2c1		inactive: -5%	
COCCn1ccc2c(C3=CCOCC3)nc(-c3cccc(NC(C)=O)c3)cc21	inconclusive: 10 µM [inhibitor, full curve, poor fit]		
CCc1cc(=O)n(CC(=O)Nc2cc(OC)ccc2OC)c(-c2cccc(F)c2)n1		inactive: -29.8%	
CN1CCC(OC2CCN(C(=O)c3ccc(Cl)cc3)CC2)CC1		inactive: -15.9%	
Cc1cc(C(=O)N2CCC3(CC2)Nc2ccccc2NC3=O)c2ccccc2n1		inactive: -6.63%	
COc1cccc([S+](=O)([O-])N2CCNc3cnc(Nc4cccnc4)nc3C2)c1	inconclusive: 79.4 µM [inhibitor, partial curve, poor fit]		
Cn1cc(-c2ccccc2Oc2ccccc2)c2nc(CN3CCOCC3)cn2c1=O	active: 89.1 µM		
O=C(Cc1ccccc1)NCCC1CCN(C(=O)Nc2ccc(F)cc2F)CC1		inactive: -1.08%	
CC(Cc1cnccn1)NC(=O)c1csc2nc(-c3cccc(C(F)(F)F)c3)cn12 (configuration not stated)	inconclusive: 39.8 µM [inhibitor, partial curve]		
COc1ccc(CN2CCN(c3nc4ccccc4o3)CC2CCO)cc1C (configuration not stated)	inconclusive: 50.1 µM [inhibitor, partial curve, poor fit]		
COCCNC(=O)[C@@H]1Cc2cn(Cc3cccnc3)c3cccc(c23)[C@H](CC(C)C)N1	inconclusive: 100 µM [inhibitor, partial curve]		
C[C@]1(CO)[C@H]2Cc3sc(NC(=O)c4c(F)cccc4F)nc3[C@@H](CC(=O)NCc3ccccc3)[C@]2(C)CC[C@H]1O	inconclusive: 28.2 µM [inhibitor, full curve]		

Compound	Potency	activity change, negative = cytotoxicity	outcome
O=C1CC2CCN([S+](=O)([O-])C3CCCC3)CC2CCN1 (configuration not stated)			inactive
CCOC(=O)c1nccn1Cc1nc(-c2ccccc2OCC)oc1C	inconclusive: 56.2 µM [inhibitor, partial curve, poor fit]		
O=C(NCc1cccc(Cl)c1)c1ccc2nnc(-c3ccc(F)cc3)n2c1	inconclusive: 44.7 µM [inhibitor, partial curve, poor fit]		
O=C(NCc1ccccc1)C1CCCN(C2CCN(C(=O)c3ccoc3)CC2)C1 (configuration not stated)		inactive: -12.2%	
c1ccc(N2CCN(Cc3cc(CC4(NCc5cnc6ccccc6c5)COC4)no3)CC2)cc1	inconclusive: 35.5 µM [inhibitor, partial curve, poor fit]		
CC(C)CN1CCN(c2ncncc2-c2nc(-c3ccccc3)no2)CC1	inconclusive: 50.1 µM [inhibitor, partial curve, poor fit]		
O=C(c1cccnc1)N1CC(COc2ccccc2)C2(C1)CN(c1ccccc1)C2 (configuration not stated)	inconclusive: 100 µM [inhibitor, partial curve, poor fit]		
O=C1CC(c2ccccc2)N(Cc2ccncc2)CCCN(C(=O)NCc2ccc(F)cc2)CCN1 (configuration not stated)		inactive: -25.2%	
COc1cccc(NC(=O)N2CCN(C(=O)c3cccnc3)[C@@H](C(=O)N[C@H]3CCCNC3=O)C2)c1			inactive
CC1(C(=O)Nc2ccccc2)CCc2cnc(N3CCOCC3)nc21 (configuration not stated)	inconclusive: 39.8 µM [inhibitor, partial curve, poor fit]		
COc1cccc(-c2noc(-c3ccc(NCCn4cccn4)nc3)n2)c1OC	inconclusive: 56.2 µM [inhibitor, partial curve, poor fit]		
CC(C)C[C@@H]1N[C@H](C(=O)NCc2ccccn2)Cc2cn(Cc3ccncc3)c3cccc1c23	inconclusive: 50.1 µM [inhibitor, partial curve, poor fit]		
O=C(C1CCCCC1)N1CCC(n2cc(-c3nc(-c4ccccc4)no3)nn2)CC1		inactive: -24.4%	
COc1cc(CCC(=O)NC2CCc3nn(CC4CC4)c(=O)n3CC2)on1 (configuration not stated)		inactive: -30.7%	
Cc1cc(C)cc(-c2nc(C3CC(=O)N(c4ccc(Cl)cc4)C3)no2)c1 (configuration not stated)	inconclusive: 35.5 µM [inhibitor, partial curve]		
COc1ccc(-c2ccccc2NC(=O)C2CCCN(Cc3c(O)cccc3OC)C2)cc1 (configuration not stated)	inconclusive: 50.1 µM [inhibitor, partial curve, poor fit]		
CN(CCC1CCOCC1)C(=O)c1cc(COc2ccccc2F)[nH]n1			inactive
COCCN1C(=O)CSC12CCN(C(=O)Nc1ccccc1C)CC2		inactive: -1.48%	
COc1ccc(C(=O)NCC(=O)N2CCCCCCNC(=O)CC2c2ccccc2)c(OC)c1 (configuration not stated)	inconclusive: 70.8 µM [inhibitor, partial curve, poor fit]		
CC(C)(C)C(=O)N1CCC(C(=O)N2CCC3(CC2)CC(=O)Nc2ccccc2O3)CC1		inactive: -26.4%	
O=C1NCc2ccccc2CC12CCN(Cc1ccc(Br)cn1)CC2		inactive: -4.35%	
